Our source for the TGI and GI50 values is PubChem BioAssay (NCI).

“And” between values parts separate entries of the source, which are not always exact repeats. Equal entries are not always repeated.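 Interpolation was linear, between the two tested concentrations surrounding the appropriate level; five concentrations were tested over 48 hours in 96-well plates. GI50 = concentration required for 50% inhibition of growth. Definition used: TGI = concentration required for complete inhibition of growth.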

The subject of the test is NCI-H322M lung. The test can be described thus: growth of human tumour cells (NCI), 48 h.

On to `COC(=O)c1cc(NC2OCC(OC(C)=O)C(OC(C)=O)C2OC(C)=O)nc(SC)c1C(=O)OC` (configuration not stated), for which the TGI was > 100 µM.

Regarding `CC1(C)SC2C(C(=O)O)N=C(Cc3ccccc3)N2C1C(=O)O` (configuration not stated), the TGI came out at 56.8 µM.

For `CCCCCCCCCCCCCCCCC1=CC(=O)C=C(OC)C1=O`, the TGI is > 100 µM.

In the case of `Cc1nc(Nc2nnc(-c3cc([N+](=O)[O-])cc([N+](=O)[O-])c3C)o2)sc1C(=O)CC(=O)Cc1nc2ccc(Cl)cc2[nH]c1=O`, the TGI was > 100 µM.

Regarding `COC1Cc2c(C)c(OC(C)=O)c3cccnc3c2O1` (configuration not stated), the TGI was > 100 µM.

Consider `Cc1[nH]c2c(C)ccc(C)c2c1CC(=O)O`, for which the TGI was > 100 µM.

`Cc1cc(C)c2c(=O)cc(-c3ccc(Cl)cc3)[nH]c2n1`: the TGI was > 100 µM.

As to `O=C(NO)c1cccc(OCc2ccc(Br)cc2)c1`, the TGI is > 87.6 µM.

`O=C(O)C(Cc1cccs1)NC(=O)C(F)(F)F` (configuration not stated): the TGI was > 100 µM.

Regarding `COc1ccccc1C1C2=C(COC2=O)OC(C)(C)Oc2cc3c(cc21)OCO3` (configuration not stated), the TGI was > 100 µM.

For the compound `CC1=CC2=C(OCO1)C(=O)c1ccccc1C2=O`, the TGI was 28.1 µM.

For `CCN(Cc1ccc(F)cc1)c1ccc(CO)c(Cl)c1`, the GI50 is 13.4 µM and the TGI is > 48 µM.

On to `NCC(=O)C(O)C(O)C(O)CO` (configuration not stated), for which the TGI is > 100 µM.

For `COC(=O)C1([C@@H]2C[C@@H](O)[C@]3(C)CC/C=C(\C)CCC[C@H](C)[C@H](O)[C@@H]2O3)CC1`, the TGI is > 100 µM.

As for `CON(C)C(=O)C(Cc1ccccc1)NC(=O)OC(C)(C)C` (configuration not stated), the TGI is > 100 µM.

As for `CCc1ccccc1NC(=O)/C(CC(=O)c1c(C)n([O-])c2ccccc2[n+]1=O)=N\NS(=O)(=O)c1ccc(C)cc1`, the TGI was > 100 µM.

Take `Cc1cc(N(CCC#N)CCC#N)ccc1/C=C1/CN(N2C(=O)/C(=C/c3ccc(N(CCC#N)CCC#N)cc3C)N=C2c2ccccc2)C(c2ccccc2)=N1`: the TGI is > 100 µM.

Take `Cc1ccc2c(c1)C(=O)/C(=C1/CCc3ccc(C)cc31)C2`: the TGI is > 100 µM.

On to `N=c1nc(N)c2cc3c(N)nc(=N)c3cc12`, for which the TGI is > 96 µM.

The compound `O=C1c2ccccc2C(=O)c2c(OCC3CO3)ccc(OCC3CO3)c21` (configuration not stated) registered a TGI of 25.5 µM.

Compound `C=C(C)C(=O)NC(N)=NC#N` showed a TGI of 320 µM.

Take `CN1C(=O)n2c(nc3ccccc32)C(N=[N+]=[N-])(N=[N+]=[N-])C1=O` (configuration not stated): the TGI is > 100 µM.

Regarding `CNC(=O)c1ccc(Nc2ncc(C(F)(F)F)c(NCc3nccnc3N(C)S(C)(=O)=O)n2)cc1`, the GI50 is 2.3 µM and 2.16 µM and 2.47 µM; the TGI is > 10 µM and 10.3 µM and 12.1 µM.

In the case of `CN(C)c1ccc(N=Nc2cccc3ccoc23)cc1`, the TGI was > 100 µM.

Compound `CC(=O)O[C@H]1CC[C@H]2[C@@H]3CCc4cc(O)c(I)cc4[C@H]3CC[C@]12C` showed a TGI of 29.5 µM.

Take `CSc1ccc(-c2cn3ccsc3n2)c(O)c1`: the TGI was > 100 µM.

For `CC1=CC(C)C(C)N(CCNC(=O)Nc2ccccc2)c2ccccc21` (configuration not stated), the TGI worked out at 55.4 µM.

For `CCCCCCCC1c2cc3[nH]c(cc4nc(cc5[nH]c(cc(n2)[C@@]1(C)CC(=O)N(C)C)c(C)c5CCC(=O)O)C(CCC(=O)O)=C4C)cc3C` (some centres not stated), the TGI is > 100 µM.

As for `CC(=O)[O-].CC(=O)[O-].[Mn+2].c1ccc(/C(=N\Nc2ccccn2)c2ccccn2)cc1`, the TGI came out at 6.45 µM.

In the case of `NC(=S)SCCC(=O)O`, the TGI was > 100 µM.

Consider `COC(=O)c1cc(C#N)[nH]c1-c1ccsc1`, for which the TGI is > 100 µM.

Take `CCOC(=O)C1Cc2c(ccc(OC)c2OC)C(=O)C1N` (configuration not stated): the TGI was > 100 µM.

For `O=c1[nH]cnc2c(C3OC(CO)C(O)C3O)[nH]nc12` (configuration not stated), the TGI was > 100 µM.

Regarding `COc1cc2c(c(OC)c1OC)-c1ccc([O-])c(=O)cc1[C@@H](NC(C)=O)CC2.COc1cc2c(c(OC)c1OC)-c1ccc([O-])c(=O)cc1[C@@H](NC(C)=O)CC2.[Cu+2]`, the GI50 is 4.33 µM and the TGI is > 100 µM.

On to `O=C(OC(C(=O)O)C(OC(=O)c1ccccc1)C(=O)O)c1ccccc1` (configuration not stated) (tested in a mixture with another compound), for which the TGI is > 100 µM.

As for `CC1CCCOc2ccc(cc2)C=Nc2ccc(cc2)CCc2ccc(cc2)N=Cc2ccc(cc2)OCCC1` (configuration not stated), the TGI is > 100 µM.

In the case of `CS(=O)(=O)c1ccc(N/N=C/c2c(-c3ccc(S(C)(=O)=O)cc3)[nH]c3ccc(F)cc23)cc1`, the GI50 is 2.34 µM and the TGI is > 50 µM.

On to `CN(C)CC/C=C1\c2ccccc2Sc2ccc(Cl)cc21`, for which the GI50 was 7.81 µM; the TGI was 20.9 µM and 24.2 µM.

With `[N-]=[N+]=NC1(N=[N+]=[N-])C(=O)NN=C(c2ccccc2)C1=O` (configuration not stated), the TGI was > 100 µM.

As to `CC(C)(C)CN1[C@@H]2CCCC[C@H]2N(CC(C)(C)C)P1(=O)Cc1ccccc1`, the TGI turned out to be 27.8 µM.

`CCCCOC(=O)CN1C(=O)c2ccccc2C1=O`: the TGI is > 100 µM.

As to `COC(=O)c1cc(C)ccc1/C=C1\Cc2cc(C)c(C)cc2C1=O`, the TGI was > 100 µM.

With `O=C1C=C(Nc2ccccc2)c2ncccc2C1=O`, the GI50 is 1.6 µM and the TGI is 2.98 µM.

Regarding `O=C(Sc1c(-c2ccccc2)c(=O)n(-c2ccccc2)c(=S)n1-c1ccccc1)c1ccc(Cl)cc1`, the TGI is > 100 µM.

Regarding `O=C1C2CC3C(CC2C(=O)[N]1[Sn]([c]1ccccc1)([c]1ccccc1)[c]1ccccc1)C1(Cl)C(Cl)=C(Cl)C3(Cl)C1(Cl)Cl` (configuration not stated), the GI50 is 0.13 µM and the TGI was determined as 0.278 µM.

On to `CCOC(=O)Cc1ccc(Nc2nc3cc(C(F)(F)F)ccc3nc2C(=O)OCC)cc1`, for which the TGI was > 100 µM.

As for `COc1cc(-c2c[nH]c3ccccc23)nc(-c2c[nH]c3ccccc23)n1`, the TGI was 19.7 µM.

`CCC[CH2][Sn]1([CH2]CCC)[O]C(c2ccccn2)S(=O)(=O)[O]1` (configuration not stated): the GI50 was 14.7 µM and the TGI was found to be 27.9 µM.

With `CCC1CCc2nc3sc(C(=O)Nc4ccccc4F)c(N)c3cc2C1` (configuration not stated), the GI50 was > 100 µM and the TGI was > 100 µM.

As to `C#C[C@@]1(O)[C@@H](CO)O[C@@H](n2cc(Cl)c3c(N)ncnc32)[C@@H]1O`, the GI50 was 0.262 µM and the TGI was found to be 3.13 µM.

For `CC(C)(Cl)CCC1=C(Cl)C(=O)c2ccccc2C1=O`, the GI50 is 12.6 µM and the TGI is 28.6 µM.

Compound `CCOC(=O)Cn1c(=O)c2nc(SC)sc2n(-c2ccc(C)cc2)c1=S` came in with a TGI of 97.5 µM.

On to `O=C1c2ccccc2C(=O)N1/N=C\c1ccc(Br)cc1`, for which the GI50 is > 100 µM and the TGI is > 100 µM.

In the case of `CCCCCCCC/C=C\CCCCCCCCNc1ccn(C2OC(COP(=O)(O)OC3CC(n4cc(F)c(=O)[nH]c4=O)OC3CO)C(O)C2O)c(=O)n1` (configuration not stated), the TGI was > 100 µM.

As for `CO/C(=N/N1CC1C(F)(F)F)c1ccncc1` (configuration not stated), the TGI was > 100 µM.

Regarding `COc1ccc2[nH]c3c4c(c5cc(C(C)(C)C)ccc5c3c2c1)C(=O)N(c1ccccc1)C4=O`, the TGI was > 100 µM.

As to `COc1ccc(NC(=O)C(=O)C(CC2C(=O)NC(=S)NC2=O)C(=O)c2ccc3ccccc3c2)c([N+](=O)[O-])c1` (configuration not stated), the TGI is > 100 µM.

Turning to `CCCCCCCCCOC(=S)NC`, the TGI is > 100 µM.

Regarding `CCOC(=O)/C(C#N)=C(/NS(=O)(=O)c1cc(C)c(Cl)cc1[S-])[n+]1ccc(N(C)C)cc1`, the TGI was > 100 µM.

For the compound `CC[O-].CC[O-].[O-]c1ccccc1C=Nc1ccccc1.[O-]c1ccccc1C=Nc1ccccc1.[Ti+4]`, the GI50 was 81 µM and the TGI was > 100 µM.

On to `CCCCCCNC(=O)c1cc(NCc2cc(OC)ccc2OC)ccc1O`, for which the TGI was > 100 µM.

Take `N#CN=Nc1cc(Cl)c(N=NC#N)cc1Cl`: the TGI is > 100 µM.

As to `C[C@]12CCC[C@H](OC=O)C1(O)C[C@H](C(=O)O)CC2` (some centres not stated), the TGI is > 100 µM.

Take `O=C(OCc1ccccc1)N1CCNCCNCC1`: the TGI is > 100 µM.

As to `NC(=O)/N=C(\N)NC(=O)c1ccccc1`, the TGI is > 100 µM.

With `CCCCCCCCCCCCCCCCOP(=O)(O)OP(=O)(O)OCC1OC(n2ccc(N)nc2=O)CC1O` (configuration not stated), the TGI was > 100 µM.

Consider `CS(=O)(=O)c1nc(N)nc2nc[nH]c12`, for which the TGI was > 100 µM.

Turning to `C=C1C(=O)O[C@@H]2[C@H]1CC[C@H](C)[C@]1(O)CCC(=O)[C@@]21C`, the TGI was > 10 µM.

Take `O=S(=O)(NCCNc1cc(-c2cn(-c3ccccc3)nc2-c2cccc(O)c2)ccn1)c1ccc(C(F)(F)F)cc1`: the GI50 was 3.35 µM and the TGI was found to be 17.3 µM.

With `O=C(O)C(=O)Cc1ccc2c(c1)OCO2`, the TGI is > 100 µM.

As to `CC1OC(OC2C(OC(=O)[C@]34CCC(C)(C)C[C@H]3C3=CC[C@@H]5[C@@]6(C)CC[C@H](OC7OC(C(=O)O)C(O)C(O)C7O)C(C)(C)[C@@H]6CC[C@@]5(C)[C@]3(C)CC4)OCC(O)C2O)C(O)C(O)C1OC1OCC(O)C(O)C1O` (some centres not stated), the TGI is > 100 µM and 90.2 µM.

On to `CCCCCCCCCCCCCOC(=O)c1c(C)[nH]c(/C=C2\N=C(c3ccc[nH]3)C=C2OC)c1C`, for which the GI50 was 1.36 µM and the TGI is > 100 µM.

In the case of `Oc1c(Br)cc(Br)cc1CN(Cc1cc(Br)cc(Br)c1O)C1CCCCC1`, the TGI was > 100 µM.

With `Cc1cc(Cl)ccc1Nc1sc(C(=O)c2cc3cc(Cl)ccc3o2)c(N)c1C#N`, the TGI was > 100 µM.

On to `COc1ccc(C(=S)c2cc(OC)c(OC)c(OC)c2)cc1OC(=O)CCl`, for which the GI50 was 0.0566 µM and the TGI is > 100 µM.

Turning to `COc1ccc(C(=O)/C=C/c2cc3ccccc3[nH]c2=O)cc1`, the GI50 was 32.3 µM and the TGI is > 86.3 µM.

Compound `O=c1c(O)c(-c2ccc(O)c(O)c2)oc2cc(O)ccc12` returned a TGI of 63.5 µM.

Consider `CCOC(=O)c1ccc2c(c1)nc1n2C(c2c(F)cccc2F)SC1` (configuration not stated), for which the TGI is > 100 µM.

Regarding `C=C(Cl)C(C)(Cl)CCC(Cl)C(C)(C)Cl` (configuration not stated), the TGI is > 100 µM.

Consider `COC(C)(C)C(O)C(O)C[C@H](C)C1CC=C2C1(C)CCC1[C@@]3(C)CCC(OC(C)=O)C(C)(C)C3CC(OC3OC(COC(C)=O)C(O)C(O)C3O)[C@@]21C` (some centres not stated), for which the TGI was > 10 µM.

Compound `Cc1ccc(S(=O)(=O)Nn2c(-c3ccccc3)c(C#N)c(-c3ccc(Cl)cc3)c(C#N)c2=O)cc1` had a TGI of 82.5 µM.

With `CC1=C(C)SC(=C2Sc3c(n(C)c(=O)[nH]c3=O)S2)S1`, the TGI is > 100 µM.

On to `O=c1c2cccnc2[nH]c2ccc3scnc3c12`, for which the TGI was > 10 µM.

On to `CC1(C)C(O)c2ccccc2OC1N1CCN(C2Oc3ccccc3C(O)C2(C)C)CC1` (configuration not stated), for which the TGI was > 100 µM.

Consider `CC(C#N)c1cn(S(=O)(=O)c2ccccc2)c2ccccc12` (configuration not stated), for which the TGI was > 100 µM.
